Source: PubChem BioAssay AID1745845 (National Center for Advancing Translational Sciences (NCATS), 2022)
The whole screen tested about 360,000 compounds, of which about 2,600 (0.72%) were called active. This list was built around the results that the source calls inconclusive (neither active nor inactive); the mix of calls is not that of the screen. The call rests on the fitted dose curve; in most records, active means well fitted inhibition curve with a large enough effect; inconclusive means small, poorly fitted or top-dose-only effect; inactive means no such curve, though single readings can be large or run the other way. Potencies of inconclusive entries are doubtful fits and often do not repeat.
On the % scale 0 is the no-effect control and ±100 the full control effect; potency means the concentration at half of the fitted maximal effect; tags describe the fitted curve by direction and shape.

Assay: Primary qHTS for Inhibitors of ATXN expression; further: nearly all actives have a fitted effect of over 55% in size
Conditions: HEK-293 ATXN2-luciferase reporter, luminescence, 24 h; activity change, negative = inhibition: at 57 µM (top of the series)
Summary of the method: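 ATXN2-luciferase reporter cells (luciferase flanked by upstream and downstream ATXN2 gene portions) were treated 24 h at 37 °C with compounds at up to 57 uM. SteadyGlo luminescence gave expression; GF-AFC fluorescence gave viability.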
With `CC1CN(C(=O)CCC(=O)NCCCN2CCC(Cc3ccccc3)CC2)c2cc(Cl)ccc2O1` (configuration not stated) the Potency was inconclusive: 14.1 µM [inhibitor, partial curve]. With `Cc1ccc(NS(=O)(=O)c2ccc3c(c2)NC(=O)CCS3)cc1F` the Potency was inconclusive: 39.8 µM [inhibitor, partial curve, poor fit]. For `CC1CCCN(S(=O)(=O)c2ccc(C(=O)Nc3nnc(-c4ccco4)o3)cc2)C1` (configuration not stated), the Potency was inconclusive: 14.1 µM [inhibitor, partial curve]. With `CC(C)(C)S(=O)N1Cc2cc(C(=O)NCc3ccc(Oc4ccccc4)cc3)nc(-c3cccc(-c4cc5ccccc5o4)c3)c2[C@H]1CCO` (some centres not stated) the Potency was inconclusive: 28.2 µM [inhibitor, single point]. For `CCC[n+]1c(C)sc2c3c(ccc21)CCCC3`, the Potency was inconclusive: 29.9 µM [inhibitor, partial curve, poor fit]. With `COC(=O)c1cnc(Nc2nc(C(N)c3ccccc3Cl)cs2)nc1C(F)(F)F` (configuration not stated) the Potency was inconclusive: 35.5 µM [inhibitor, single point]. For `CC#CCN1c2ccccc2[C@]23C[C@@H](C(=O)OC)N(C(=O)c4ccc(Br)cc4)C2=NC(C(=O)OC)=C(C(=O)OC)[C@H]13`, the Potency was inconclusive: 20 µM [inhibitor, partial curve]. With `CC(C)c1ccc(-c2nnn(CCC(=O)O)n2)cc1` the Potency was active: 0.562 µM. For `COc1ccc(C2CCCN2C(=O)Nc2ccc(F)cc2)cc1OC` (configuration not stated), the “activity change, negative = inhibition” value was inactive: -15.1%. With `C/C(Cl)=C\Cn1c(NCCc2ccccc2)nc2c1c(=O)n(C)c(=O)n2C` the Potency was inconclusive: 12.6 µM [inhibitor, partial curve, poor fit]. With `CCOC(=O)C(=Cc1ccc(N(C)C)cc1)C(=O)c1ccccc1` the “activity change, negative = inhibition” value was inactive: -25.7%. In the case of `CC(=O)c1sc(NC(=O)C2COc3ccccc3O2)nc1C` (configuration not stated), the Potency is reported as inconclusive: 18.9 µM [inhibitor, single point]. In the case of `CN(C)S(=O)(=O)c1cccc(NC(=S)N/N=C/c2cc(Br)ccc2O)c1`, the Potency is reported as inconclusive: 3.16 µM [inhibitor, full curve]. For `CCn1c(SCC(=O)N2CCN(c3ccccc3)CC2)nc2c([nH]c3ccccc32)c1=O`, the “activity change, negative = inhibition” value was inactive: -11%. In the case of `C#CCN(C)CC1=Cc2ccccc2Oc2ccccc21`, the Potency is reported as inconclusive: 24.3 µM [inhibitor, partial curve, poor fit]. In the case of `OCC1(CCc2ccccc2)CCN(C/C=C/c2ccccc2)CC1`, the “activity change, negative = inhibition” value is reported as inactive: -18.7%. With `CCN1/C(=C/c2ccc3cc(C)cc(C)c3[n+]2CC)Sc2cc(C)ccc21` the Potency was inconclusive: 2.38 µM [inhibitor, full curve, poor fit]. For `O=C1c2cccc3cccc(c23)C(=O)C1(O)O`, the Potency was inconclusive: 26.7 µM [inhibitor, partial curve]. With `Cc1nc2cc(-c3cccc(F)c3)nn2c(C)c1CCC(=O)NC(C)c1ccc2c(c1)OCCO2` (configuration not stated) the Potency was inconclusive: 17.8 µM [inhibitor, partial curve, poor fit]. In the case of `Cc1c(Cl)cccc1-n1c(SCC(=O)NCc2cccs2)nnc1-c1ccncc1`, the “activity change, negative = inhibition” value is reported as inactive: -2.19%. With `COc1ccc(C(C)(O)c2nc(-c3cccc(C(C)C)c3)cs2)cc1` (configuration not stated) the Potency was inconclusive: 25.1 µM [inhibitor, single point]. With `O=C(C1COc2ccccc2O1)N1CCN(Cc2ccc3c(c2)OCO3)CC1` (configuration not stated) the “activity change, negative = inhibition” value was inactive: -12.3%. In the case of `CNC1=C(N(C(C)=O)c2ccc(Br)cc2)C(=O)c2ccccc2C1=O`, the Potency is reported as inconclusive: 25.1 µM [inhibitor, partial curve]. With `Cc1ccc(NC(=O)c2cnc(SCC(=O)NCC3CCCO3)n(C)c2=O)cc1C` (configuration not stated) the Potency was inconclusive: 39.8 µM [inhibitor, single point]. In the case of `COc1cccc(-c2ncn(CCc3ccccc3OC)c2C(C)C)c1`, the Potency is reported as inconclusive: 8.91 µM [inhibitor, partial curve, poor fit]. For `CC12CCC(C(=O)N(Cc3ccccc3)Cc3ccccc3)(OC1=O)C2(C)C` (configuration not stated), the “activity change, negative = inhibition” value was inactive: -0.999%. For `COc1cc(OC)nc(C(NC(=O)C2CCN(Cc3ccc(Oc4ccccc4)cc3)CC2)c2ccccc2C)n1` (configuration not stated), the “activity change, negative = inhibition” value was inactive: 0%. With `CCc1ccc2oc(-c3cccc(NC(=O)C(C)(C)Oc4ccc(Br)cc4)c3)nc2c1` the “activity change, negative = inhibition” value was inactive: 84%. For `COc1ccc(N=C2S/C(=C\c3cc(C)n(C)c3C)C(=O)N2C)cc1`, the “activity change, negative = inhibition” value was inactive: -12.5%. In the case of `Cc1[nH]n(-c2ccccc2)c(=O)c1C1(C(F)(F)F)C(=O)N(c2ccccc2)C2=C1C(=O)CC(C)(C)C2` (configuration not stated), the “activity change, negative = inhibition” value is reported as inactive: 0.835%. For `CCOc1ccc(/C=N/NC(=O)COc2ccccc2-c2ccccc2)cc1`, the Potency was inconclusive: 39.8 µM [inhibitor, single point]. For `Oc1ccc(C[C@H]2CNC(=S)N2CC2CCCN2C[C@H](Cc2ccc(O)cc2)N2C[C@H](Cc3ccc(O)cc3)N(CC3CCCCC3)C2=S)cc1` (some centres not stated), the “activity change, negative = inhibition” value was inactive: 0%. In the case of `O=C(NCCN1CCOCC1)c1cccs1`, the “activity change, negative = inhibition” value is reported as inactive: 7.97%. In the case of `CCCCCCSc1cc(-c2nc3cnccn3c2NCCCC)ccc1OC`, the Potency is reported as inconclusive: 39.8 µM [inhibitor, partial curve, poor fit]. For `CCOC(=O)c1ccc(N2C(=O)c3n[nH]c(-c4cccs4)c3C2c2cccc(OC)c2)cc1` (configuration not stated), the Potency was inconclusive: 39.8 µM [inhibitor, single point]. With `O=C(NCCN1CCOCC1)Nc1ccccc1` the “activity change, negative = inhibition” value was inactive: -3.36%. For `Cc1ccc(S(=O)(=O)N2CCN(C(=O)C3CCN(C(=O)c4ccc(F)cc4)CC3)CC2)c(C)c1`, the Potency was inconclusive: 35.5 µM [inhibitor, partial curve, poor fit]. In the case of `O=C(c1ccc(C(F)(F)F)cc1)N1CCC(=O)N([C@H](COCc2ccc(C(F)(F)F)cc2)Cc2ccccc2)CC1`, the Potency is reported as inconclusive: 39.8 µM [inhibitor, single point]. For `Cc1cnn(CCC(=O)NNC(=S)NCC(C)C)c1`, the “activity change, negative = inhibition” value was inactive: 9.62%. With `CCCCCCN1CCN(C2CN(Cc3cn(Cc4cc(C)cc(C)c4)nn3)S(=O)(=O)C2)CC1` (configuration not stated) the Potency was inconclusive: 25.1 µM [inhibitor, single point]. In the case of `COc1cccc(-c2cnc3c(NC(C)=O)cc(-c4ccc(C(=O)N5CCOCC5)cc4)cn23)c1`, the Potency is reported as inconclusive: 39.8 µM [inhibitor, single point]. With `Cc1cnc(NC(=O)CCCc2nc3ccccc3s2)s1` the Potency was active: 2.51 µM.
